# Experimental data taken from the supplement of paper PMC8728848.
# The other results are listed elsewhere or left out.
# B1: PILRa (Homo sapiens), Q9UKJ1 (protein)
# chain: MGRPLLLPLLPLLLPPAFLQPSGSTGSGPSYLYGVTQPKHLSASMGGSVEIPFSFYYPWELATAPDVRISWRRGHFHRQSFYSTRPPSIHKDYVNRLFLNWTEGQKSGFLRISNLQKQDQSVYFCRVELDTRSSGRQQWQSIEGTKLSITQAVTTTTQRPSSMTTTWRLSSTTTTTGLRVTQGKRRSDSWHISLETAVGVAVAVTVLGIMILGLICLLRWRRRKGQQRTKATTPAREPFQNTEEPYENIRNEGQNTDPKLNPKDDGIVYASLALSSSTSPRAPPSHRPLKSPQNETLYSVLKA
# What was measured:
# Experiment in all cases: glycan array binding signal (z-score within array); higher = stronger binding
# Settings in all cases: glycan notation: IUPAC condensed, linker removed
# [1] = target: Fuc(a1-3)[Gal(b1-4)]GlcNAc(b1-6)[Gal(b1-3)GlcNAc(b1-3)]Gal(b1-4)Glc
# Outline: (§1)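 The binding signal is a Z-score computed within each array. Data were drawn from 3228 arrays in the Consortium for Functional Glycomics database, restricted to those with a known protein sequence. Scores were averaged over arrays of the same protein sequence at different concentrations or buffers, and over linkers, and negative values can be taken as non-binding.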
# [2] = target: Fuc(a1-3)[Gal(b1-4)]GlcNAc6S
# Outline: as §1
# [3] = target: Fuc(a1-3)[Gal3S(b1-4)]Glc6S
# Outline: as §1
# [4] = target: Fuc(a1-3)[Gal3S(b1-4)]GlcNAc
# Outline: as §1
# [5] = target: Fuc(a1-3)[Gal3S(b1-4)]GlcNAc6S
# Outline: as §1
# [6] = target: Fuc(a1-3)[GalNAc(b1-4)]GlcNAc
# Outline: as §1
# [7] = target: Fuc(a1-4)GlcNAc
# Outline: as §1
# [8] = target: Fuc(b1-3)GlcNAc
# Outline: as §1
# [9] = target: Gal(a1-2)Gal
# Outline: as §1
# [10] = target: Gal(a1-3)Gal
# Outline: as §1
# [11] = target: Gal(a1-3)Gal(b1-3)GlcNAc
# Outline: as §1
# [12] = target: Gal(a1-3)Gal(b1-3)GlcNAc(b1-2)Man(a1-3)[Gal(a1-3)Gal(b1-3)GlcNAc(b1-2)Man(a1-6)]Man(b1-4)GlcNAc(b1-4)GlcNAc
# Outline: as §1
# [13] = target: Gal(a1-3)Gal(b1-3)GlcNAc(b1-3)GalNAc
# Outline: as §1
# [14] = target: Gal(a1-3)Gal(b1-3)[Fuc(a1-4)]GlcNAc(b1-2)Man(a1-3)[Gal(a1-3)Gal(b1-3)[Fuc(a1-4)]GlcNAc(b1-2)Man(a1-6)]Man(b1-4)GlcNAc(b1-4)GlcNAc
# Outline: as §1
# [15] = target: Gal(a1-3)Gal(b1-4)Glc
# Outline: as §1
# [16] = target: Gal(a1-3)Gal(b1-4)GlcNAc
# Outline: as §1
# [17] = target: Gal(a1-3)Gal(b1-4)GlcNAc(b1-3)GalNAc
# Outline: as §1
# [18] = target: Gal(a1-3)Gal(b1-4)[Fuc(a1-3)]GlcNAc
# Outline: as §1
# [19] = target: Gal(a1-3)Gal(b1-4)[Fuc(a1-3)]GlcNAc(b1-2)Man(a1-3)[Gal(a1-3)Gal(b1-4)[Fuc(a1-3)]GlcNAc(b1-2)Man(a1-6)]Man(b1-4)GlcNAc(b1-4)GlcNAc
# Outline: as §1
# [20] = target: Gal(a1-3)GalNAc
# Outline: as §1
# [21] = target: Gal(a1-3)[Gal(a1-4)]Gal(b1-4)GlcNAc
# Outline: as §1
# [22] = target: Gal(a1-4)Gal(b1-3)GlcNAc(b1-2)Man(a1-3)[Gal(a1-4)Gal(b1-3)GlcNAc(b1-2)Man(a1-6)]Man(b1-4)GlcNAc(b1-4)GlcNAc
# Outline: as §1
# [23] = target: Gal(a1-4)Gal(b1-4)Glc
# Outline: as §1
# [24] = target: Gal(a1-4)Gal(b1-4)GlcNAc
# Outline: as §1
# [25] = target: Gal(a1-4)Gal(b1-4)GlcNAc(b1-2)Man(a1-3)[Gal(a1-4)Gal(b1-4)GlcNAc(b1-2)Man(a1-6)]Man(b1-4)GlcNAc(b1-4)GlcNAc
# Outline: as §1
# [26] = target: Gal(a1-4)Gal(b1-4)GlcNAc(b1-3)Gal(b1-4)Glc
# Outline: as §1
# [27] = target: Gal(a1-4)GlcNAc
# Outline: as §1
# [28] = target: Gal(a1-6)Glc
# Outline: as §1
# [29] = target: Gal(b1-2)Gal
# Outline: as §1
# [30] = target: Gal(b1-3)Gal
# Outline: as §1
# [31] = target: Gal(b1-3)Gal(b1-4)GlcNAc
# Outline: as §1
# [32] = target: Gal(b1-3)Gal(b1-4)GlcNAc(b1-2)Man(a1-3)[Gal(b1-3)Gal(b1-4)GlcNAc(b1-2)Man(a1-6)]Man(b1-4)GlcNAc(b1-4)GlcNAc
# Outline: as §1
# [33] = target: Gal(b1-3)GalNAc
# Outline: as §1
# [34] = target: Gal(b1-3)GalNAc(a1-3)[Fuc(a1-2)]Gal(b1-4)Glc
# Outline: as §1
# [35] = target: Gal(b1-3)GalNAc(a1-3)[Fuc(a1-2)]Gal(b1-4)GlcNAc
# Outline: as §1
# [36] = target: Gal(b1-3)GalNAc(b1-3)Gal(a1-4)Gal(b1-4)Glc
# Outline: as §1
# [37] = target: Gal(b1-3)GalNAc(b1-4)Gal(b1-4)Glc
# Outline: as §1
binder,measurement,setting,value
B1,glycan array binding signal (z-score),[1],-0.224
same,glycan array binding signal (z-score),[2],0.024
same,glycan array binding signal (z-score),[3],0.048
same,glycan array binding signal (z-score),[4],-0.314
same,glycan array binding signal (z-score),[5],-0.051
same,glycan array binding signal (z-score),[6],-0.102
same,glycan array binding signal (z-score),[7],-0.404
same,glycan array binding signal (z-score),[8],-0.246
same,glycan array binding signal (z-score),[9],-0.298
same,glycan array binding signal (z-score),[10],-0.315
same,glycan array binding signal (z-score),[11],-0.153
same,glycan array binding signal (z-score),[12],4.98
same,glycan array binding signal (z-score),[13],-0.192
same,glycan array binding signal (z-score),[14],-0.322
same,glycan array binding signal (z-score),[15],0.046
same,glycan array binding signal (z-score),[16],-0.399
same,glycan array binding signal (z-score),[17],-0.192
same,glycan array binding signal (z-score),[18],-0.311
same,glycan array binding signal (z-score),[19],2.21
same,glycan array binding signal (z-score),[20],-0.195
same,glycan array binding signal (z-score),[21],-0.235
same,glycan array binding signal (z-score),[22],-0.296
same,glycan array binding signal (z-score),[23],0.11
same,glycan array binding signal (z-score),[24],-0.089
same,glycan array binding signal (z-score),[25],-0.033
same,glycan array binding signal (z-score),[26],-0.27
same,glycan array binding signal (z-score),[27],-0.204
same,glycan array binding signal (z-score),[28],0.13
same,glycan array binding signal (z-score),[29],0.001
same,glycan array binding signal (z-score),[30],-0.287
same,glycan array binding signal (z-score),[31],-0.288
same,glycan array binding signal (z-score),[32],-0.101
same,glycan array binding signal (z-score),[33],-0.275
same,glycan array binding signal (z-score),[34],-0.169
same,glycan array binding signal (z-score),[35],-0.179
same,glycan array binding signal (z-score),[36],-0.311
same,glycan array binding signal (z-score),[37],-0.239
